Among all 310,000 compounds or so, about 2,200 (0.71%) showed an effect of 50% or more. Effects have a minus sign here. This is one part of the list.
Target: human ether-à-go-go-related gene (hERG) potassium channel (human, UniProt Q12809)
Assay: primary screen, population patch clamp on CHO cells stably expressing hERG

Sequence of human ether-à-go-go-related gene (hERG) potassium channel (Q12809 whole entry, looked up): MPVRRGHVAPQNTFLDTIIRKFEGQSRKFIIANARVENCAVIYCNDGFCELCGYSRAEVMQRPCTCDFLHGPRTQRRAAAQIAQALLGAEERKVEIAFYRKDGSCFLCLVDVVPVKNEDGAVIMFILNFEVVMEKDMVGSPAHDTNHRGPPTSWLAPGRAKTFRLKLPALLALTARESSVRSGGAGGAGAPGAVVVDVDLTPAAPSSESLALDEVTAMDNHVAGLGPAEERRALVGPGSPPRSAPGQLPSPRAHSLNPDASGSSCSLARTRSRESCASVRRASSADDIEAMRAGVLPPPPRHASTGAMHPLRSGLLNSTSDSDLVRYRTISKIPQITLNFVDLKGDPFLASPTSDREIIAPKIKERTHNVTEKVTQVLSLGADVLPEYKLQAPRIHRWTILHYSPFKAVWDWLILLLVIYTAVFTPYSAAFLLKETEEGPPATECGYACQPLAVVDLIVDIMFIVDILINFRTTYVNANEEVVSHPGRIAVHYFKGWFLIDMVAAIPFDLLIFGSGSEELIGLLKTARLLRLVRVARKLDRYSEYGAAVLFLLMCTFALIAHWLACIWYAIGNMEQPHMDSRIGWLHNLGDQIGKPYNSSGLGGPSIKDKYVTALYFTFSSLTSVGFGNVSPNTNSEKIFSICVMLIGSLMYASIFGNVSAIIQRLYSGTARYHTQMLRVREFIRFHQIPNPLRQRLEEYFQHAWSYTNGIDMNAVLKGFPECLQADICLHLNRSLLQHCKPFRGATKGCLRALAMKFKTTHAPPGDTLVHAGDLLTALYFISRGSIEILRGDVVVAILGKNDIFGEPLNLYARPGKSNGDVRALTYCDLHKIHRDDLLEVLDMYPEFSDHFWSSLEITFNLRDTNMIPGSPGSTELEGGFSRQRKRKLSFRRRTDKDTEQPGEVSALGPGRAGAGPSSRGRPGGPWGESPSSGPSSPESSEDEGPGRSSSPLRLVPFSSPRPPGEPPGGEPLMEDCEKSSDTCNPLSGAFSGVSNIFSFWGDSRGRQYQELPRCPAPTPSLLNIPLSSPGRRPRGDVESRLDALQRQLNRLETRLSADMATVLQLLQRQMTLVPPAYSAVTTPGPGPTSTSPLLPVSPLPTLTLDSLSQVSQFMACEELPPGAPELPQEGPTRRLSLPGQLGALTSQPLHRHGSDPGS

Compound	hERG current change (%, negative = inhibition) at 1uM [%]
Cc1ccsc1C(=O)NC(C)c1ccc2c(c1)OCO2 (stereo not shown)	0.988
Cc1cc(=O)[nH]c(N2CCOCC2)n1	18.3
Cc1cc(C(=O)Nc2sc3c(c2C#N)CCC(C)C3)cs1 (stereo not shown)	0.433
Cc1cc(OCc2cn3cccnc3n2)ccc1Cl	-0.328
CC(C)C(=O)Nc1ccc(C(=O)Nc2ccc(Br)cc2F)cc1	15.1
COc1cccc(CN(C(=O)c2cnccn2)C(C(=O)NC2CCCCC2)c2cc(OC)c(OC)c(OC)c2)c1 (stereo not shown)	9.01
O=C(NCc1cccnc1)Nc1cccc(Cl)c1	15.8
CCc1ccc(N2C(=O)c3cc(N4CCOCC4)c([N+](=O)[O-])cc3C2=O)cc1	10.6
CC(C)Nc1ccc(C(CC(N)=O)NC(=O)c2ccccc2)cc1[N+](=O)[O-] (stereo not shown)	10.6
Nc1nc(COC(=O)c2ccc3c(c2)OCCO3)nc(Nc2ccccc2)n1	11.2
CC(=O)c1ccc(NC(=O)COc2ccc3c(c2)OCO3)cc1	9.98
Cc1cc(C)cc(NC(=O)c2cnn(-c3ccccc3)c2C2CCNCC2)c1.Cl	4.32
COC(=O)Nc1ccc(S(=O)(=O)N2CCN(C)CC2)cc1	8.25
COc1ccc(-c2nc(NC(=O)Cn3ccc(C(F)(F)F)n3)sc2C)cc1	15.2
CC1CN(C)C(C)C/C1=N\Oc1ccc([N+](=O)[O-])cc1.Cl (stereo not shown)	-84.5
Cc1ccccc1N1C(=O)NC(=O)/C(=C/c2ccc(N3CCOCC3)o2)C1=O	10.6
Cc1onc(-c2ccccc2Cl)c1C(=O)NCc1ccc(N2CCCC2=O)cc1	14.6
Cc1ccc(-c2cc(-c3ccccc3)[nH]c(=S)c2C#N)cc1	17.6
Cc1ccc(S(=O)(=O)c2c(C)nn(C(C)(C)C)c2OC(=O)c2ccco2)cc1	3.27
O=C(C1=C(O)C(=O)N(CCCN2CCOCC2)C1c1ccccn1)c1cc2ccccc2o1 (stereo not shown)	3.18
O=C(O)c1cccc(Cn2c(Cl)c(/C=N/NC(=O)c3ccccc3O)sc2=O)c1	5.59
Cc1ccc(-c2nn(C)c(=O)c3ccccc23)cc1S(=O)(=O)NCCN1CCOCC1	4.92
O=C(NCCc1ccccc1)C1CCN(S(=O)(=O)c2cccc3nonc23)CC1	-3.06
COC(=O)c1cccc(NC(=O)CSc2nnc(C3CC3)n2C)c1	15.8
CCc1ccccc1NC(=O)CN(C)C(=O)CSc1nnc(Nc2ccc(C)cc2)s1	1.6
O=C(COc1coc(CN2CCN(c3ccccc3)CC2)cc1=O)Nc1ccccc1F	13
O=C(CSc1ccc([N+](=O)[O-])cn1)Nc1ccc2c(c1)OCO2	14.7
Cc1ccc(NC(=O)C(=O)NCC2CCCO2)cc1 (stereo not shown)	6.81

Compound	hERG current change (%, negative = inhibition) at 1uM [%]
CSc1ncccc1C(=O)NCc1ccccc1Cl	0.0203
CCOC(=O)c1c(NC(=O)Cn2cnc([N+](=O)[O-])n2)sc2c1CCCC2	1.33
COc1ccc(OC)c(S(=O)(=O)N(C)CC(=O)N2CCN(c3ccccc3)CC2)c1	2.6
O=C(COC(=O)c1ccc(O)cc1O)NC1CC1	7.81
COc1ccc(NC(=O)CSCc2ccc(C)cc2)cc1	-1.82
Cc1nc(SCC(=O)c2cc3ccccc3oc2=O)c(C#N)c(-c2cccs2)c1C(=O)Nc1ccccc1	8.51
CCCc1nc2sc3c(c2c(=O)n1NC(=O)CCC(=O)OC)CCCC3	11
COc1ccc(CN(C)CC(=O)Nc2cccc(S(N)(=O)=O)c2)c(OC)c1OC	14.6
COC(=O)c1ccc(C23CC4(C2)[C@H](CN(C)[C@@H]4c2ccccc2)C3c2ccc(Cl)nc2)cc1 (stereo partly shown)	10.1
Cc1cccc(OCc2n(CC(=O)OC3CC(C)CCC3C(C)C)c3ccccc3[n+]2C)c1.[Cl-] (stereo not shown)	-12.2
CC(=O)NCCNC(=O)c1ccc(CSc2nc3ccccc3s2)cc1	13.5
CN(C)CCCN(C(=O)c1sc2ccccc2c1Cl)c1nc2ccc(F)cc2s1.Cl	-1.97
O=c1cc(C(Cl)(Cl)Cl)oc2c1ccc1ccccc12	12.4
CCc1ccccc1N1CN(Cc2ccco2)CNC1=S	12.4
Cn1c(=O)c2ncn(CC(=O)NCCOCc3ccccc3Cl)c2n(C)c1=O	9.02
CCCC(C)C1(CC)C(=O)NC(=Nc2ccc(F)cc2)NC1=O (stereo not shown)	10.2
CC(=O)OC1CC2(C)C(=O)CCC2C2CCc3cc(O)ccc3C12 (stereo not shown)	7.05
COc1ccc2nc(Nc3nc(CSc4nnnn4-c4ccccc4)cc(=O)[nH]3)nc(C)c2c1	5.06
CSc1nsc(/C=C/Nc2ccc(O)cc2C)c1C#N	-4.27
COc1ccc(-c2nn(-c3ccccc3)cc2C(=O)N2CCOCC2)cc1	8.83
O=C(/C=C/c1cccc(Cl)c1)NNC(=O)c1ccncc1	6.95
Cc1ccc(S(=O)(=O)Nc2nc3ccccc3nc2N2CCc3ccccc3C2)cc1	8.57
Cc1ccc(O)c(C(=O)c2cnc3c(c2)c(-c2ccc(F)cc2)c(C#N)c(=O)n3C)c1	8.29
O=C(CSC1=NCCS1)Nc1ccc(F)cc1	7.04
COC(=O)c1ccccc1NC(=O)Nc1ccc(Cl)cn1	-1.39
Cc1ccc(NCN2C(=O)C(=O)c3ccccc32)nc1	0.944
COc1ccccc1N(CC(=O)Nc1cccc(C(F)(F)F)c1)S(C)(=O)=O	12

From article PMC4336329 (PLoS ONE, 2015)
